# Laboratory results published in the supplement of paper PMC8728848.
# The other results are listed elsewhere or left out.
# Experiments:
# Assay in all cases: glycan array binding signal (z-score within array); higher = stronger binding
# Details in all cases: glycan notation: IUPAC condensed, linker removed
# [1] = molecular target: Gal(b1-4)GlcNAc(b1-2)[Gal(b1-4)GlcNAc(b1-6)]Man(a1-6)[GlcNAc(b1-4)][Gal(b1-4)GlcNAc(b1-2)Man(a1-3)]Man(b1-4)GlcNAc(b1-4)GlcNAc
# Outline: (§1)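 Glycan array data were curated from 3228 arrays in the Consortium for Functional Glycomics database and kept only where the protein sequence was available. Glycan names were converted to IUPAC-condensed notation, and columns mapping to the same glycan were averaged. The binding signal is a within-array Z-score, averaged across arrays of the same protein sequence at different concentrations or buffers and across linkers. Negative Z-scores can be read as non-binding.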
# [2] = molecular target: Gal(b1-4)GlcNAc(b1-2)[Gal(b1-4)GlcNAc(b1-6)]Man(a1-6)[GlcNAc(b1-4)][Gal(b1-4)GlcNAc(b1-2)[Gal(b1-4)GlcNAc(b1-4)]Man(a1-3)]Man(b1-4)GlcNAc(b1-4)[Fuc(a1-6)]GlcNAc
# Outline: as §1
# [3] = molecular target: Gal(b1-4)GlcNAc(b1-3)Gal(b1-3)GalNAc
# Outline: as §1
# [4] = molecular target: Gal(b1-4)GlcNAc(b1-3)Gal(b1-3)GlcNAc
# Outline: as §1
# [5] = molecular target: Gal(b1-4)GlcNAc(b1-3)Gal(b1-4)Glc
# Outline: as §1
# [6] = molecular target: Gal(b1-4)GlcNAc(b1-3)Gal(b1-4)GlcNAc
# Outline: as §1
# [7] = molecular target: Gal(b1-4)GlcNAc(b1-3)Gal(b1-4)GlcNAc(b1-2)Man(a1-3)[Gal(b1-4)GlcNAc(b1-3)Gal(b1-4)GlcNAc(b1-2)Man(a1-6)]Man(b1-4)GlcNAc(b1-4)GlcNAc
# Outline: as §1
# [8] = molecular target: Gal(b1-4)GlcNAc(b1-3)Gal(b1-4)GlcNAc(b1-2)Man(a1-3)[Gal(b1-4)GlcNAc(b1-3)Gal(b1-4)GlcNAc(b1-2)Man(a1-6)]Man(b1-4)GlcNAc(b1-4)[Fuc(a1-6)]GlcNAc
# Outline: as §1
# [9] = molecular target: Gal(b1-4)GlcNAc(b1-3)Gal(b1-4)GlcNAc(b1-2)[Gal(b1-4)GlcNAc(b1-3)Gal(b1-4)GlcNAc(b1-6)]Man(a1-6)[Gal(b1-4)GlcNAc(b1-3)Gal(b1-4)GlcNAc(b1-2)Man(a1-3)]Man(b1-4)GlcNAc(b1-4)GlcNAc
# Outline: as §1
# [10] = molecular target: Gal(b1-4)GlcNAc(b1-3)Gal(b1-4)GlcNAc(b1-2)[Gal(b1-4)GlcNAc(b1-3)Gal(b1-4)GlcNAc(b1-6)]Man(a1-6)[Gal(b1-4)GlcNAc(b1-3)Gal(b1-4)GlcNAc(b1-2)Man(a1-3)]Man(b1-4)GlcNAc(b1-4)[Fuc(a1-6)]GlcNAc
# Outline: as §1
# [11] = molecular target: Gal(b1-4)GlcNAc(b1-3)Gal(b1-4)GlcNAc(b1-3)Gal(b1-4)GlcNAc
# Outline: as §1
# [12] = molecular target: Gal(b1-4)GlcNAc(b1-3)Gal(b1-4)GlcNAc(b1-3)Gal(b1-4)GlcNAc(b1-2)Man(a1-3)[Gal(b1-4)GlcNAc(b1-3)Gal(b1-4)GlcNAc(b1-3)Gal(b1-4)GlcNAc(b1-2)Man(a1-6)]Man(b1-4)GlcNAc(b1-4)GlcNAc
# Outline: as §1
# [13] = molecular target: Gal(b1-4)GlcNAc(b1-3)Gal(b1-4)GlcNAc(b1-3)Gal(b1-4)GlcNAc(b1-2)Man(a1-3)[Gal(b1-4)GlcNAc(b1-3)Gal(b1-4)GlcNAc(b1-3)Gal(b1-4)GlcNAc(b1-2)Man(a1-6)]Man(b1-4)GlcNAc(b1-4)[Fuc(a1-6)]GlcNAc
# Outline: as §1
# [14] = molecular target: Gal(b1-4)GlcNAc(b1-3)Gal(b1-4)GlcNAc(b1-3)Gal(b1-4)GlcNAc(b1-2)[Gal(b1-4)GlcNAc(b1-3)Gal(b1-4)GlcNAc(b1-3)Gal(b1-4)GlcNAc(b1-6)]Man(a1-6)[Gal(b1-4)GlcNAc(b1-3)Gal(b1-4)GlcNAc(b1-3)Gal(b1-4)GlcNAc(b1-2)Man(a1-3)]Man(b1-4)GlcNAc(b1-4)[Fuc(a1-6)]GlcNAc
# Outline: as §1
# [15] = molecular target: Gal(b1-4)GlcNAc(b1-3)Gal(b1-4)GlcNAc(b1-3)Gal(b1-4)GlcNAc(b1-3)Gal(b1-4)GlcNAc(b1-2)Man(a1-3)[Gal(b1-4)GlcNAc(b1-3)Gal(b1-4)GlcNAc(b1-3)Gal(b1-4)GlcNAc(b1-3)Gal(b1-4)GlcNAc(b1-2)Man(a1-6)]Man(b1-4)GlcNAc(b1-4)GlcNAc
# Outline: as §1
# [16] = molecular target: Gal(b1-4)GlcNAc(b1-3)Gal(b1-4)GlcNAc(b1-3)Gal(b1-4)GlcNAc(b1-3)Gal(b1-4)GlcNAc(b1-2)Man(a1-3)[Gal(b1-4)GlcNAc(b1-3)Gal(b1-4)GlcNAc(b1-3)Gal(b1-4)GlcNAc(b1-3)Gal(b1-4)GlcNAc(b1-2)Man(a1-6)]Man(b1-4)GlcNAc(b1-4)[Fuc(a1-6)]GlcNAc
# Outline: as §1
# [17] = molecular target: Gal(b1-4)GlcNAc(b1-3)Gal(b1-4)GlcNAc(b1-3)Gal(b1-4)GlcNAc(b1-3)Gal(b1-4)GlcNAc(b1-2)[Gal(b1-4)GlcNAc(b1-3)Gal(b1-4)GlcNAc(b1-3)Gal(b1-4)GlcNAc(b1-3)Gal(b1-4)GlcNAc(b1-6)]Man(a1-6)[Gal(b1-4)GlcNAc(b1-3)Gal(b1-4)GlcNAc(b1-3)Gal(b1-4)GlcNAc(b1-3)Gal(b1-4)GlcNAc(b1-2)Man(a1-3)]Man(b1-4)GlcNAc(b1-4)[Fuc(a1-6)]GlcNAc
# Outline: as §1
# [18] = molecular target: Gal(b1-4)GlcNAc(b1-3)Gal(b1-4)GlcNAc(b1-3)Gal(b1-4)GlcNAc(b1-3)Gal(b1-4)GlcNAc(b1-3)Gal(b1-4)GlcNAc(b1-2)Man(a1-3)[Gal(b1-4)GlcNAc(b1-3)Gal(b1-4)GlcNAc(b1-3)Gal(b1-4)GlcNAc(b1-3)Gal(b1-4)GlcNAc(b1-3)Gal(b1-4)GlcNAc(b1-2)Man(a1-6)]Man(b1-4)GlcNAc(b1-4)GlcNAc
# Outline: as §1
# [19] = molecular target: Gal(b1-4)GlcNAc(b1-3)Gal(b1-4)GlcNAc(b1-3)Gal(b1-4)GlcNAc(b1-3)Gal(b1-4)GlcNAc(b1-3)Gal(b1-4)GlcNAc(b1-2)Man(a1-3)[Gal(b1-4)GlcNAc(b1-3)Gal(b1-4)GlcNAc(b1-3)Gal(b1-4)GlcNAc(b1-3)Gal(b1-4)GlcNAc(b1-3)Gal(b1-4)GlcNAc(b1-2)Man(a1-6)]Man(b1-4)GlcNAc(b1-4)[Fuc(a1-6)]GlcNAc
# Outline: as §1
# [20] = molecular target: Gal(b1-4)GlcNAc(b1-3)Gal(b1-4)GlcNAc(b1-3)Gal(b1-4)GlcNAc(b1-3)Gal(b1-4)GlcNAc(b1-3)Gal(b1-4)GlcNAc(b1-2)[Gal(b1-4)GlcNAc(b1-3)Gal(b1-4)GlcNAc(b1-3)Gal(b1-4)GlcNAc(b1-3)Gal(b1-4)GlcNAc(b1-3)Gal(b1-4)GlcNAc(b1-6)]Man(a1-6)[Gal(b1-4)GlcNAc(b1-3)Gal(b1-4)GlcNAc(b1-3)Gal(b1-4)GlcNAc(b1-3)Gal(b1-4)GlcNAc(b1-3)Gal(b1-4)GlcNAc(b1-2)Man(a1-3)]Man(b1-4)GlcNAc(b1-4)[Fuc(a1-6)]GlcNAc
# Outline: as §1
# [21] = molecular target: Gal(b1-4)GlcNAc(b1-3)Gal(b1-4)GlcNAc(b1-3)Gal(b1-4)GlcNAc(b1-3)Gal(b1-4)GlcNAc(b1-3)Gal(b1-4)GlcNAc(b1-3)Gal(b1-4)GlcNAc(b1-2)Man(a1-3)[Gal(b1-4)GlcNAc(b1-3)Gal(b1-4)GlcNAc(b1-3)Gal(b1-4)GlcNAc(b1-3)Gal(b1-4)GlcNAc(b1-3)Gal(b1-4)GlcNAc(b1-3)Gal(b1-4)GlcNAc(b1-2)Man(a1-6)]Man(b1-4)GlcNAc(b1-4)GlcNAc
# Outline: as §1
# [22] = molecular target: Gal(b1-4)GlcNAc(b1-3)Gal(b1-4)GlcNAc(b1-3)GalNAc
# Outline: as §1
# [23] = molecular target: Gal(b1-4)GlcNAc(b1-3)Gal(b1-4)GlcNAc(b1-3)[Gal(b1-4)GlcNAc(b1-3)Gal(b1-4)GlcNAc(b1-6)]GalNAc
# Outline: as §1
binder,measurement,setting,value
"MPA (Maclura pomifera), P18674 (protein) GVTFDDGAYTGIREINFEYNSETAIGGLRVTYDLNGMPFVAEDHKSFITGFKPVKISLEFPSEYIVEVSGYVGKVEGYTVIRSLTFKTNKQTYGPYGVTNGTPFSLPIENGLIVGFKGSIGYWLDYFSIYLSL",glycan array binding signal (z-score),[1],-0.264
same,glycan array binding signal (z-score),[2],-0.072
same,glycan array binding signal (z-score),[3],-0.278
same,glycan array binding signal (z-score),[4],-0.221
same,glycan array binding signal (z-score),[5],-0.206
same,glycan array binding signal (z-score),[6],-0.244
same,glycan array binding signal (z-score),[7],3.21
same,glycan array binding signal (z-score),[8],0.302
same,glycan array binding signal (z-score),[9],1.21
same,glycan array binding signal (z-score),[10],2.04
same,glycan array binding signal (z-score),[11],-0.271
same,glycan array binding signal (z-score),[12],8.11
same,glycan array binding signal (z-score),[13],0.437
same,glycan array binding signal (z-score),[14],2.44
same,glycan array binding signal (z-score),[15],0.324
same,glycan array binding signal (z-score),[16],4.26
same,glycan array binding signal (z-score),[17],0.593
same,glycan array binding signal (z-score),[18],0.258
same,glycan array binding signal (z-score),[19],-0.028
same,glycan array binding signal (z-score),[20],0.427
same,glycan array binding signal (z-score),[21],-0.46
same,glycan array binding signal (z-score),[22],1.15
same,glycan array binding signal (z-score),[23],4
